The test system of this assay is L1210 leukemia ip in BDF1 mice, survival T/C. Description: NCI In Vivo Anticancer Drug Screen. Data for tumor model L1210 Leukemia (intraperitoneal) in B6D2F1 (BDF1) mice. To be noted: schedule: Q01DX009 (ip), vehicle: saline, higher = longer survival.

T/C data for two molecules are collected here from PubChem BioAssay AID248 (DTP/NCI, 2004).

Toxic doses and inconclusive results are not listed. For part of its entries the source gives two or more results. This list holds those alone. There may be further records. The values listed for one entry differ for a reason that is not stated; dose, time, organism, isomer or construct need not be as stated for each record.

Consider `CC1CN1P(=O)(N1CC1C)N1CC1C` (configuration not stated), for which the T/C (endpoint: mean survival time, dose: 44.0 mg/kg/injection) was 117 % of control and 162 % of control.

With `Nc1ncn(C2OC(CO)C(O)C2O)c(=O)n1` (configuration not stated), the T/C (endpoint: median survival time, dose: 0.39 mg/kg/injection) is 122 % of control, 150 % of control, 153 % of control.
